Test results reported in PubChem BioAssay (NCATS).
Values joined by “and” are separate entries in the source; they are usually repeats but may differ in a detail not shown here. Equal entries are not always repeated. This list was built around the results that the source calls inconclusive (neither active nor inactive); the mix of calls is not that of the screen. For part of these data: Potencies of inconclusive entries are doubtful fits and often do not repeat. Active and inactive are the calls of the source. Calls follow the shape of the dose curve; as a rule, active = well fitted curve in the direction sought with a large enough effect; inconclusive = small, poorly fitted or top-dose-only effect, or another doubt; inactive = no such curve, though single readings can be large; an effect the other way counts as inactive or inconclusive.

Experiments:
[1] = Primary qHTS for inhibitors of nuclear receptor binding SET domain protein 2 (NSD2) in an RCH-ACV wild type WT cells (2C) (AID 1645877); settings: activity change, negative = cell killing: at 44.9 µM (top of the series); also: nearly all actives have a fitted effect of over 70% in size; as to activity change, negative = cell killing: % is scaled to controls: 0 for no effect and ±100 for the full control effect
[2] = Primary fluorescence-based thiol-reactive (MSTI) qHTS assay for identification of artifact compounds. (AID 1845221);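 also: thiol-reactive compounds lower the probe fluorescence signal; nearly all actives have a fitted effect of over 65% in size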
Procedure, shortened: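 Curve-fitted percent inhibition (4-parameter Hill) derived from fluorescence, Ex 525/Em 598 nm, scaled with Acetyl-MSTI and MSTI; 1 h incubation at room temperature.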

CRL-7250 = normal cell line; experiment: Cytotoxic Profiling of Annotated Libraries Using Quantitative High-Throughput Screening (AID 1296008); settings: Five cell lines viability, CellTiter-Glo ATP luminescence, 48-72 h; max response: stronger effect = lower value; also: nearly all actives have a fitted effect of over 60% in size; as to max response: % is scaled to controls: 0 for no effect and ±100 for the full control effect
Procedure, shortened: (§1)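 Compounds were pin-transferred onto cells and incubated 48 or 72 hr at 37 degree Celsius, 95% humidity. CellTiter-Glo was added, plates sat 10 min at room temperature, then ATP-coupled luminescence was imaged as the viability read-out.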

HEK293 = experiment: as above; settings: Five cell lines viability, CellTiter-Glo ATP luminescence, 48-72 h; max response: stronger effect = lower value
Procedure, shortened: as §1

NIH3T3 = experiment: as above; settings: Five cell lines viability, CellTiter-Glo ATP luminescence, 48-72 h; max response: stronger effect = lower value
Procedure, shortened: as §1

CASKI = experiment: Primary qHTS to identify gynecologic anti-cancer compounds using libraries of approved drugs and bioactive compounds (AID 1345084); settings: Gynecologic cancer cell panel viability, ATPlite luminescence, 48 h; activity change, negative = cytotoxicity: at 57.5 µM (top of the series); also: nearly all actives have a fitted effect of over 55% in size; as to activity change, negative = cytotoxicity: % is scaled to controls: 0 for no effect and ±100 for the full control effect
Procedure, shortened: (§2)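 Cytotoxicity screen measuring ATP content by luciferase luminescence. Each compound is applied at five concentrations for 48 h at 37 C with 5% CO2.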

Hek293T = experiment: as above; settings: Gynecologic cancer cell panel viability, ATPlite luminescence, 48 h, control line for the selectivity index; series mostly up to 57.5 µM
Procedure, shortened: as §2

JEG-3 = experiment: as above; settings: Gynecologic cancer cell panel viability, ATPlite luminescence, 48 h; series mostly up to 57.5 µM
Procedure, shortened: as §2

SKOV3 = experiment: as above; settings: Gynecologic cancer cell panel viability, ATPlite luminescence, 48 h; series mostly up to 57.5 µM
Procedure, shortened: as §2

Tov112D = experiment: as above; settings: Gynecologic cancer cell panel viability, ATPlite luminescence, 48 h; activity change, negative = cytotoxicity: at 57.5 µM (top of the series)
Procedure, shortened: as §2

C33A = experiment: as above; settings: Gynecologic cancer cell panel viability, ATPlite luminescence, 48 h; series mostly up to 57.5 µM
Procedure, shortened: as §2

CAOV3 = experiment: as above; settings: Gynecologic cancer cell panel viability, ATPlite luminescence, 48 h; series mostly up to 57.5 µM
Procedure, shortened: as §2

Es-2 = experiment: as above; settings: Gynecologic cancer cell panel viability, ATPlite luminescence, 48 h; series mostly up to 57.5 µM
Procedure, shortened: as §2

OV90 = experiment: as above; settings: Gynecologic cancer cell panel viability, ATPlite luminescence, 48 h; series mostly up to 57.5 µM
Procedure, shortened: as §2

PA-1 = experiment: as above; settings: Gynecologic cancer cell panel viability, ATPlite luminescence, 48 h; series mostly up to 57.5 µM
Procedure, shortened: as §2

Tov-21-G = experiment: as above; settings: Gynecologic cancer cell panel viability, ATPlite luminescence, 48 h; activity change, negative = cytotoxicity: at 57.5 µM (top of the series)
Procedure, shortened: as §2

[3] = Primary qHTS for inhibitors of nuclear receptor binding SET domain protein 2 (NSD2) in an isogenic RCH-ACV NSD2 p.E1099K mutant (9B) (AID 1645876); also: nearly all actives have a fitted effect of over 70% in size
[4] = P-glycoprotein substrates identified in KB-8-5-11 adenocarcinoma cell line, qHTS therapeutic library screen (AID 1346987); also: nearly all actives have a fitted effect of over 65% in size
Procedure, shortened: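 Compounds are pinned in dose-response onto KB-8-5-11 cells (500 cells/well, colchicine-free medium) and left 72 h at 37 degree C. CellTiter-Glo luminescence then yields AC50 values.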

[5] = system: Zika virus NS2B-NS3 protease (unlinked complex); experiment: Primary screen GU Rhodamine qHTS for Zika virus inhibitors: Unlinked NS2B-NS3 protease assay (AID 1347159); also: nearly all actives have a fitted effect of over 60% in size
Procedure, shortened: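 In dose–response format, inhibition of unlinked protease (25 nM) was measured with 1.5 microM bis-peptide Rhodamine110 substrate. Aprotinin served as the intraplate control.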
Potency is read from the fitted curve at half-maximal effect; tags tell the direction and shape of the fitted curve.

O=C1NC(c2cccc([N+](=O)[O-])c2)=CCN1c1ccccc1O
inconclusive: Potency [2] 2.81 µM [inhibitor, partial curve] | Potency (CRL-7250) 6.85 µM [inhibitor, single point] | Potency (HEK293) 9.68 µM [inhibitor, single point] | Potency (NIH3T3) 7.69 µM [inhibitor, single point] | Potency (CASKI) 12.6 µM [cytotoxic, single point] | Potency (Hek293T) 12.6 µM [cytotoxic, single point] | Potency (JEG-3) 0.891 µM [rising, partial curve, poor fit] | Potency (SKOV3) 11.2 µM [cytotoxic, single point] | Potency (Tov112D) 12.6 µM [cytotoxic, single point]
inactive: Potency [1]

COc1cc(OC)c(/C=C/S(=O)(=O)Cc2ccc(OC)c(NCC(=O)O)c2)c(OC)c1
inconclusive: Potency (C33A) 1.41 µM [cytotoxic, full curve] | Potency (CAOV3) 39.8 µM [cytotoxic, single point] | Potency (CASKI) 0.447 µM [cytotoxic, full curve] | Potency (Hek293T) 0.158 µM [cytotoxic, full curve] | Potency (OV90) 2.82 µM [cytotoxic, full curve, poor fit] | Potency (SKOV3) 0.1 µM [cytotoxic, full curve, poor fit] | Potency (Tov-21-G) 0.282 µM [cytotoxic, full curve, poor fit]
active: Potency [1] 51.5 nM and 46.8 nM | Potency [2] 3.36 µM | Potency (CRL-7250) 0.231 µM | Potency (HEK293) 0.058 µM | Potency (NIH3T3) 0.146 µM | Potency (Es-2) 0.316 µM | Potency (JEG-3) 0.447 µM | Potency (PA-1) 0.224 µM | Potency (Tov112D) 0.316 µM

CC(=O)Nc1c(I)cc(I)c(C(=O)O)c1I
inactive: Potency [1] | Potency (Tov112D)
inconclusive: Potency (CRL-7250) 29.9 µM [inhibitor, single point] | Potency (HEK293) 18.8 µM [inhibitor, single point]

CCCC(=O)O[C@]1(C(=O)CC)CC[C@H]2[C@@H]3CCC4=CC(=O)CC[C@]4(C)[C@H]3[C@@H](O)C[C@@]21C
inactive: Potency [3] | Potency (Tov112D)
inconclusive: Potency (CRL-7250) 0.0299 µM [inhibitor, full curve] | Potency (HEK293) 33.5 µM [inhibitor, single point]

CCCN(CCc1cccs1)[C@H]1CCc2c(O)cccc2C1
inconclusive: Potency [4] 16.4 µM [inhibitor, single point] | Potency [3] 26.6 µM [inhibitor, single point] | Potency [1] 29.9 µM [inhibitor, single point] | Potency (HEK293) 33.5 µM [inhibitor, single point] | Potency (SKOV3) 12.6 µM [cytotoxic, partial curve, poor fit]
inactive: max response (CRL-7250) -5.8% | Potency (CASKI)

COCCOC(=O)C1=C(C)NC(C)=C(C(=O)OC(C)C)C1c1cccc([N+](=O)[O-])c1 (configuration not stated)
inconclusive: Potency [4] 5.8 µM [inhibitor, partial curve] | Potency (CRL-7250) 8.41 µM [inhibitor, partial curve] | Potency (HEK293) 33.5 µM [inhibitor, single point]
inactive: Potency [1] | Potency (OV90)

Cc1nc2ccc(C(=O)N3CCC4(CC3)CC(=O)c3c(cnn3C(C)C)C4)cc2[nH]1
inconclusive: Potency [3] 16.6 µM [inhibitor, partial curve, poor fit] | Potency [1] 16.6 µM [inhibitor, partial curve] | Potency (CRL-7250) 37.1 µM [inhibitor, single point] | Potency (HEK293) 23.4 µM [inhibitor, partial curve, poor fit] | Potency (NIH3T3) 20.9 µM [inhibitor, single point]

NS(=O)(=O)c1ccc(N2N=C(c3ccccc3)CC2c2ccccc2)cc1 (configuration not stated)
inactive: max response (CRL-7250) -0.316% | max response (NIH3T3) 2.93%
inconclusive: Potency [4] 32.6 µM [inhibitor, partial curve, poor fit] | Potency [5] 50.1 µM [inhibitor, partial curve] | Potency [3] 18.3 µM [inhibitor, single point] | Potency [1] 20.5 µM [inhibitor, single point] | Potency (HEK293) 29.1 µM [inhibitor, single point]

Cc1cnc(NC(=O)Nc2cc(Br)c(C)cc2OC[C@@H]2CNCCO2)cn1
inconclusive: Potency [4] 10.5 µM [inhibitor, partial curve]
inactive: max response (CRL-7250) -18.7%
active: Potency [1] 0.934 µM | Potency (HEK293) 1.32 µM

Nc1nc(OCc2cc(Br)cs2)c2[nH]cnc2n1
inactive: max response (NIH3T3) 2.13%
inconclusive: Potency [3] 26.3 µM [inhibitor, single point] | Potency [1] 18.6 µM [inhibitor, partial curve, poor fit] | Potency (CRL-7250) 23.1 µM [inhibitor, single point] | Potency (HEK293) 29.1 µM [inhibitor, single point]

C[C@@H](CN(C)C)CN1c2ccccc2Sc2ccccc21
inconclusive: Potency [4] 9.88 µM [inhibitor, partial curve, poor fit] | Potency [3] 23.7 µM [inhibitor, single point] | Potency [1] 26.6 µM [inhibitor, single point] | Potency (CRL-7250) 33.5 µM [inhibitor, single point] | Potency (HEK293) 29.9 µM [inhibitor, single point] | Potency (OV90) 31.6 µM [cytotoxic, single point]
inactive: Potency (CAOV3) | Potency (Hek293T)
active: Potency (SKOV3) 17.8 µM

C/C=C/C(=O)N(CC)c1ccccc1C
inactive: max response (CRL-7250) -6.75% | max response (HEK293) 0.227%

CCOC(=O)Cn1cccc1-c1nc(-c2ccc(OC)cc2)c(-c2ccc(OC)cc2)s1
inconclusive: Potency [3] 29.9 µM [inhibitor, single point] | Potency (CRL-7250) 33.5 µM [inhibitor, single point]
inactive: Potency [2] | Potency (SKOV3)
active: Potency (HEK293) 8.2 µM

Cc1cccc(N(C)C(=S)Oc2ccc3c(c2)CCC3)c1
inactive: Potency (Tov112D)
inconclusive: Potency [4] 29.1 µM [inhibitor, single point] | Potency (CRL-7250) 25.9 µM [inhibitor, single point] | Potency (HEK293) 29.1 µM [inhibitor, single point]
